Measured values reported in paper PMC9911399, “Two distinct binding modes provide the RNA-binding protein RbFox with extraordinary sequence specificity”.
Positions count from the first letter of the chain named. The list shows a part of the results.

B1: AGACCGC (DNA:RNA)
RNA: GGGAGACCGGAAUUCAGAUUGUCCAGACCGCUUAAAUCCCGUCGUAGCCACCA
DNA 1: CAATCTGAATTCCGGTCTCCC
DNA 2: TGGTGGCTACGACGGGATT
B2: UAUGGGG (DNA:RNA)
RNA: B1 RNA with A25U, G26A, A27U, C28G, C29G, C31G
DNA 1: CAATCTGAATTCCGGTCTCCC
DNA 2: TGGTGGCTACGACGGGATT
B3: UUGUCGA (DNA:RNA)
RNA: B1 RNA with A25U, G26U, A27G, C28U, C31A
DNA 1: CAATCTGAATTCCGGTCTCCC
DNA 2: TGGTGGCTACGACGGGATT
B4: GGCCGAA (DNA:RNA)
RNA: B1 RNA with A25G, A27C, C29G, G30A, C31A
DNA 1: CAATCTGAATTCCGGTCTCCC
DNA 2: TGGTGGCTACGACGGGATT
B5: UACCCCA (DNA:RNA)
RNA: B1 RNA with A25U, G26A, A27C, G30C, C31A
DNA 1: CAATCTGAATTCCGGTCTCCC
DNA 2: TGGTGGCTACGACGGGATT
B6: UCUGCCA (DNA:RNA)
RNA: B1 RNA with A25U, G26C, A27U, C28G, G30C, C31A
DNA 1: CAATCTGAATTCCGGTCTCCC
DNA 2: TGGTGGCTACGACGGGATT
B7: GAUGGCC (DNA:RNA)
RNA: B1 RNA with A25G, G26A, A27U, C28G, C29G, G30C
DNA 1: CAATCTGAATTCCGGTCTCCC
DNA 2: TGGTGGCTACGACGGGATT
B8: CCAGGUC (DNA:RNA)
RNA: B1 RNA with A25C, G26C, C28G, C29G, G30U
DNA 1: CAATCTGAATTCCGGTCTCCC
DNA 2: TGGTGGCTACGACGGGATT
B9: AUAUCAG (DNA:RNA)
RNA: B1 RNA with G26U, C28U, G30A, C31G
DNA 1: CAATCTGAATTCCGGTCTCCC
DNA 2: TGGTGGCTACGACGGGATT
B10: UCUGUUA (DNA:RNA)
RNA: GGGAGACCGGAAUUCAGAUUGUCCUCUGUUAUUAAAUCCCGUCGUAGCCACCA
DNA 1: CAATCTGAATTCCGGTCTCCC
DNA 2: TGGTGGCTACGACGGGATT
B11: CAGUCUA (DNA:RNA)
RNA: B10 RNA with U25C, C26A, U27G, G28U, U29C
DNA 1: CAATCTGAATTCCGGTCTCCC
DNA 2: TGGTGGCTACGACGGGATT
B12: GGGCAGC (DNA:RNA)
RNA: B1 RNA with A25G, A27G, C29A
DNA 1: CAATCTGAATTCCGGTCTCCC
DNA 2: TGGTGGCTACGACGGGATT
B13: GUCGAAC (DNA:RNA)
RNA: B1 RNA with A25G, G26U, A27C, C28G, C29A, G30A
DNA 1: CAATCTGAATTCCGGTCTCCC
DNA 2: TGGTGGCTACGACGGGATT
B14: UGAGGAG (DNA:RNA)
RNA: B1 RNA with A25U, C28G, C29G, G30A, C31G
DNA 1: CAATCTGAATTCCGGTCTCCC
DNA 2: TGGTGGCTACGACGGGATT
B15: UCGGUAC (DNA:RNA)
RNA: B10 RNA with U27G, U30A, A31C
DNA 1: CAATCTGAATTCCGGTCTCCC
DNA 2: TGGTGGCTACGACGGGATT
B16: GCCCACU (DNA:RNA)
RNA: B1 RNA with A25G, G26C, A27C, C29A, G30C, C31U
DNA 1: CAATCTGAATTCCGGTCTCCC
DNA 2: TGGTGGCTACGACGGGATT
B17: CUAAUAC (DNA:RNA)
RNA: B1 RNA with A25C, G26U, C28A, C29U, G30A
DNA 1: CAATCTGAATTCCGGTCTCCC
DNA 2: TGGTGGCTACGACGGGATT
B18: GCGAGGC (DNA:RNA)
RNA: B1 RNA with A25G, G26C, A27G, C28A, C29G
DNA 1: CAATCTGAATTCCGGTCTCCC
DNA 2: TGGTGGCTACGACGGGATT
B19: ACAGUCC (DNA:RNA)
RNA: B1 RNA with G26C, C28G, C29U, G30C
DNA 1: CAATCTGAATTCCGGTCTCCC
DNA 2: TGGTGGCTACGACGGGATT
B20: UGCGGAG (DNA:RNA)
RNA: B10 RNA with C26G, U27C, U29G, U30A, A31G
DNA 1: CAATCTGAATTCCGGTCTCCC
DNA 2: TGGTGGCTACGACGGGATT
B21: GUCAAAA (DNA:RNA)
RNA: B10 RNA with U25G, C26U, U27C, G28A, U29A, U30A
DNA 1: CAATCTGAATTCCGGTCTCCC
DNA 2: TGGTGGCTACGACGGGATT
B22: UCUACGU (DNA:RNA)
RNA: B10 RNA with G28A, U29C, U30G, A31U
DNA 1: CAATCTGAATTCCGGTCTCCC
DNA 2: TGGTGGCTACGACGGGATT
B23: AAGCGAG (DNA:RNA)
RNA: B1 RNA with G26A, A27G, C29G, G30A, C31G
DNA 1: CAATCTGAATTCCGGTCTCCC
DNA 2: TGGTGGCTACGACGGGATT
B24: GGAUGGA (DNA:RNA)
RNA: B1 RNA with A25G, C28U, C29G, C31A
DNA 1: CAATCTGAATTCCGGTCTCCC
DNA 2: TGGTGGCTACGACGGGATT
B25: AGGCACC (DNA:RNA)
RNA: B1 RNA with A27G, C29A, G30C
DNA 1: CAATCTGAATTCCGGTCTCCC
DNA 2: TGGTGGCTACGACGGGATT
B26: GCACAUC (DNA:RNA)
RNA: B1 RNA with A25G, G26C, C29A, G30U
DNA 1: CAATCTGAATTCCGGTCTCCC
DNA 2: TGGTGGCTACGACGGGATT
B27: UUAGAAG (DNA:RNA)
RNA: B10 RNA with C26U, U27A, U29A, U30A, A31G
DNA 1: CAATCTGAATTCCGGTCTCCC
DNA 2: TGGTGGCTACGACGGGATT
B28: ACCCGAA (DNA:RNA)
RNA: B1 RNA with G26C, A27C, C29G, G30A, C31A
DNA 1: CAATCTGAATTCCGGTCTCCC
DNA 2: TGGTGGCTACGACGGGATT
B29: UGAAUAG (DNA:RNA)
RNA: B1 RNA with A25U, C28A, C29U, G30A, C31G
DNA 1: CAATCTGAATTCCGGTCTCCC
DNA 2: TGGTGGCTACGACGGGATT
B30: UUAUUGU (DNA:RNA)
RNA: B1 RNA with A25U, G26U, C28U, C29U, C31U
DNA 1: CAATCTGAATTCCGGTCTCCC
DNA 2: TGGTGGCTACGACGGGATT
B31: UGCACAU (DNA:RNA)
RNA: B1 RNA with A25U, A27C, C28A, G30A, C31U
DNA 1: CAATCTGAATTCCGGTCTCCC
DNA 2: TGGTGGCTACGACGGGATT

target: T1, RBFOX1 RRM (Homo sapiens, UniProt Q9NWB1 109-208); test: EMSA; HiTS-Eq, 1 nM pool, 10 min; buffer printed only for the single-RNA assays: 10 mM Tris pH 7.5, 150 mM NaCl, 3.4 mM EDTA, 0.001% NP-40, 30 C; settings: tags: His6 N-terminal (pET28a); label: 5' 32P
T1 sequence: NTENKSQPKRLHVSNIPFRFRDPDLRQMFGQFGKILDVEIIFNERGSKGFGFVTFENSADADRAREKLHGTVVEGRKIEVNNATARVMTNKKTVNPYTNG
Method in brief: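 Purified wild-type or mutant RbFox RRM at increasing concentrations was equilibrated with 1 nM of 5′-radiolabelled RNA carrying 7 randomized nucleotides for 10 min in 50 µL. Unbound RNA was separated by 8% native PAGE and sequenced. Relative association constants came from read-count changes of each RNA species compared with the control reaction, normalised to the cognate motif.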

Binder | binding signal
B1 | 0.00757 KA relative to UGCAUGU
B2 | 0.00586 KA relative to UGCAUGU
B3 | 0.0246 KA relative to UGCAUGU
B4 | 0.00907 KA relative to UGCAUGU
B5 | 0.000257 KA relative to UGCAUGU
B6 | 0.00928 KA relative to UGCAUGU
B7 | 0.0214 KA relative to UGCAUGU
B8 | 0.0114 KA relative to UGCAUGU
B9 | 0.00629 KA relative to UGCAUGU
B10 | 0.0122 KA relative to UGCAUGU
B11 | 0.00506 KA relative to UGCAUGU
B12 | 0.0145 KA relative to UGCAUGU
B13 | 0.0123 KA relative to UGCAUGU
B14 | 0.0109 KA relative to UGCAUGU
B15 | 0.0174 KA relative to UGCAUGU
B16 | 0.00358 KA relative to UGCAUGU

Binder | binding signal
B17 | 0.00176 KA relative to UGCAUGU
B18 | 0.0102 KA relative to UGCAUGU
B19 | 0.0017 KA relative to UGCAUGU
B20 | 0.0207 KA relative to UGCAUGU
B21 | 0.00273 KA relative to UGCAUGU
B22 | 0.00715 KA relative to UGCAUGU
B23 | 0.0101 KA relative to UGCAUGU
B24 | 0.0107 KA relative to UGCAUGU
B25 | 0.00933 KA relative to UGCAUGU
B26 | 0.00753 KA relative to UGCAUGU
B27 | 0.0141 KA relative to UGCAUGU
B28 | 0.00259 KA relative to UGCAUGU
B29 | 0.0154 KA relative to UGCAUGU
B30 | 0.0162 KA relative to UGCAUGU
B31 | 0.0108 KA relative to UGCAUGU
